Assay results taken from EP3048116A1 (International-Drug-Development-Biotech, dated 2016).

Target: T1, Purified human sDR5 (human, UniProt O14763 56-182, limits assumed)
T1 construct: Analyte in the Biacore assay; only called 'purified human sDR5'
Experiment: SPR (Biacore), MAb captured on immobilised GAH, sDR5 injected at 40 nM to 2.5 nM

B1: Hz033-Mut0 (antibody, human IgG1, kappa)
heavy: EVQLQQSGAEVVKPGASVKLSCKASGFNIKDTFIHWVKQAPGQGLEWIGRIDPANGNTKYDPKFQGKATITTDTSSNTAYMELSSLRSEDTAVYYCVRGLYTYYFDYWGQGTLVTVSS[sequence of human IgG1 constant region omitted]
light: EIVMTQSPATLSVSPGERATLSCRASQSISNNLHWYQQKPGQAPRLLIKFASQSITGIPARFSGSGSGTEFTLTISSLQSEDFAVYYCQQGNSWPYTFGQGTKLEIKRTVAAPSVFIFPPSDEQLKSGTASVVCLLNNFYPREAKVQWKVDNALQSGNSQESVTEQDSKDSTYSLSSTLTLSKADYEKHKVYACEVTHQGLSSPVTKSFNRGEC
notes: produced in CHO cells; also called Hz033 native MAb; humanized MAb anti-DR5 Hz033
Kd: 276 pM
